We go through one molecule from patent CN117999282A (GAMMADELTA THERAPEUTICS LTD, dated 2024).

In the assay the target is T1, recombinant human TIGIT (human, UniProt Q495A1 22-141).
T1 construct: also called 重组TIGIT; 人TIGIT
T1 sequence (looked up): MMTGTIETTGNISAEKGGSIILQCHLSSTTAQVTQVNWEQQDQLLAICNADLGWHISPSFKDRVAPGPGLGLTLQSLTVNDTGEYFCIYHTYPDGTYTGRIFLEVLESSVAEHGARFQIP
In words: SPR, TIGIT fixed on carboxymethyl dextran chip, bispecific 100nM, then Vδ1 heterodimer 100nM.

B1: 抗Vδ1×TIGIT双特异性抗体 (ADT1-4-2×替瑞利尤单抗) (bispecific antibody, human IgG1, kappa)
chain 1: DIVMTQSPDSLAVSLGERATINCKSSQTVLYSSNNKKYLAWYQQKPGQPPNLLIYWASTRESGVPDRFSGSGSGTDFTLTISSLQAEDVAVYYCQQYYSTPFTFGPGTKVEIKRTVAAPSVFIFPPSDEQLKSGTASVVCLLNNFYPREAKVQWKVDNALQSGNSQESVTEQDSKDSTYSLSSTLTLSKADYEKHKVYACEVTHQGLSSPVTKSFNRGEC
chain 2: EVQLQQSGPGLVKPSQTLSLTCAISGDSVSSNSAAWNWIRQSPSRGLEWLGKTYYRFKWYSDYAVSVKGRITINPDTSKNQFSLQLNSVTPEDTAVFYCTRESTTYDLLAGPFDYWGQGTLVTVSSASTKGPSVFPLAPSSKSTSGGTAALGCLVKDYFPEPVTVSWNSGALTSGVHTFPAVLQSSGLYSLSSVVTVPSSSLGTQTYICNVNHKPSNTKVDKKV[letters of human IgG1 Fc with L235A G237A (EU numbers) left out]GGGGGSGGGGSGGGGSEVQLQQSGPGLVKPSQTLSLTCAISGDSVSSKSAAWNWIRQSPSRGLEWLGRTYYRSKWSTDYAASVKSRITINPDTSKNQLSLQLNSVTPEDTAVYYCARTWVGYVDRWGQGTLVTVSSGGGGSGGGGSGGGGSDIQMTQSPPALSASVGDRVTITCRASQDINDWLAWYQHKPGKAPKLLIYDASSLESGVPLRFSGSGSGTEFTLTISSLQPDDFATYYCQQKYSAPQVTFGQGTRLEIK
notes: also called 抗Vδ1×抗TIGIT
On to B1, for which the binding result was “binds”.
